# According to paper PMC4336329 (PLoS ONE, 2015):
# Out of some 310,000 compounds screened, about 2,200 (0.71%) showed an effect of 50% or more. Effects have a minus sign here. Some of the results follow.
# Target: human ether-à-go-go-related gene (hERG) potassium channel (human, UniProt Q12809)
# Assay: primary screen, population patch clamp on CHO cells stably expressing hERG
# Sequence of human ether-à-go-go-related gene (hERG) potassium channel (Q12809 whole entry, looked up): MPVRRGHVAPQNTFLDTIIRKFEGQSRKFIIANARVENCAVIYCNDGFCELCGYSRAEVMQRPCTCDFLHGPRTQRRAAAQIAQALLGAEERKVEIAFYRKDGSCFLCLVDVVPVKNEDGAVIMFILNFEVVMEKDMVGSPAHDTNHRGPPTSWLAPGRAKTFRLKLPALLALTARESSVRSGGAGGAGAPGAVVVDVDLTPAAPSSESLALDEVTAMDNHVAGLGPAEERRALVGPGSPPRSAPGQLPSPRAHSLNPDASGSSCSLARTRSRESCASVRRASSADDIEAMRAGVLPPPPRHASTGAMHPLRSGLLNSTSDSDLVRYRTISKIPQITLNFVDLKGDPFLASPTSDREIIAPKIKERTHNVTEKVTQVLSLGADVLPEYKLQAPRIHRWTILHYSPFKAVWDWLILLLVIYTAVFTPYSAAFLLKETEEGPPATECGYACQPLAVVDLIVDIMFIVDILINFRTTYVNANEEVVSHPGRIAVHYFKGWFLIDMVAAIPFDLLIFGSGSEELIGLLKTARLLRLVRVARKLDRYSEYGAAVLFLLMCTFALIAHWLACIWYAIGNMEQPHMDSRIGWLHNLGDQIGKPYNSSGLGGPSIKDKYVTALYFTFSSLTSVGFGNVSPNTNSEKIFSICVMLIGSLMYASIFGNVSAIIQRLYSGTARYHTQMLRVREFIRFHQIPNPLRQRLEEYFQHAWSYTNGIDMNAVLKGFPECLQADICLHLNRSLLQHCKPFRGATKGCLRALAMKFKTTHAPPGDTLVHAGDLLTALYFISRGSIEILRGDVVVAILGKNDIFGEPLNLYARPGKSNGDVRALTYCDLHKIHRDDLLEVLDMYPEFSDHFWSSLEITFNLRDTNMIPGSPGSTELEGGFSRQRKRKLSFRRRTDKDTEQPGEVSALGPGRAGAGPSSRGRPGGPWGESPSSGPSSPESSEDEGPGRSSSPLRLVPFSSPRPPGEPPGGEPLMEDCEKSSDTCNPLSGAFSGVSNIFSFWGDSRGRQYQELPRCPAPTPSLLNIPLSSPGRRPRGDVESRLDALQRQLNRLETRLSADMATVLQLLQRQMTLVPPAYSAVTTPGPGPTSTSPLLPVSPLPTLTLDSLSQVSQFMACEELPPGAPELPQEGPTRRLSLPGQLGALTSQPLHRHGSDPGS
row,SMILES,"hERG current change (%, negative = inhibition) at 1uM"
1,CCN1C(=O)N[C@@H](c2ccccc2)[C@H](C(C)=O)[C@H]1C,14.5%
2,CC(C)N(Cc1cnn(C)c1)C(=O)C1CCC(=O)N(CCc2cccc(F)c2)C1 (centres unmarked),12.7%
3,O=C(c1nn2c(C(F)(F)F)cc(-c3cccs3)nc2c1Br)N1CCCc2ccccc21,15.4%
4,CCCOc1ccc(-c2c(=O)n(O)c3ccccc3[n+]2[O-])cc1,15%
5,O=C1c2ccccc2C(=O)N1CN(C(=O)COc1ccc(Cl)cc1Cl)c1cccc(F)c1,12.3%
6,CCc1c(C(C)S(=O)(=O)c2ccc(C)cc2)[nH]c(=O)n1-c1ccc(C)cc1 (centres unmarked),16%
7,COc1ccc(-c2c(NC(=O)c3ccco3)oc3ccccc3c2=O)cc1,16.8%
8,CN(C)CCn1nnc2c(=O)oc3ccccc3c21.Cl,2.55%
9,CCCC1(c2ccccc2)NC(=O)N(CC(=O)Nc2cc(C)on2)C1=O (centres unmarked),-0.602%
10,COc1ccc(CN2CCNC(=O)C2CC(=O)N(C)Cc2ccno2)c(F)c1 (centres unmarked),14.6%
11,COc1cc(CCC(=O)NCC2CCCO2)cc(OC)c1OC (centres unmarked),9.77%
12,OCCC#Cc1ccc(CN2CCN(Cc3ccsc3)C(CCO)C2)cc1 (centres unmarked),10.5%
13,CN1CCc2c(sc3c2c(=O)n(-c2ccccc2)c2n[nH]c(=S)n32)C1,-11%
14,O=C(CCN1C(=O)C2CCCCC2C1=O)Nc1nc2ccc(F)cc2s1 (centres unmarked),-1.32%
15,CC(C)(C)c1cc(NC(=O)Nc2ccccc2OC(F)(F)F)no1,14.8%
16,CCOC(=O)N1CCN(c2ccc(C(C)=O)cc2F)CC1C (centres unmarked),17.7%
17,CCCc1ccc(S(=O)(=O)N/N=C\c2ccc3c(c2)OCO3)cc1,-3.43%
18,CCOc1ccc(/C=N/NC2=NCCCCC2)cc1,-19.3%
19,COc1cc(OC)cc(C(=O)NC(C)CNc2ccc(Cl)cc2[N+](=O)[O-])c1 (centres unmarked),7.43%
20,N#Cc1cccc(Cn2cc(C(F)(F)F)ccc2=O)c1,-0.628%
21,O=c1[nH]c2cc3c(cc2cc1CN(Cc1nnnn1CC1CCCO1)C1CCCCC1)OCO3 (centres unmarked),8.84%
22,CC(=O)Nc1ncc(Cc2cccc(Cl)c2)s1,9.23%

row,SMILES,"hERG current change (%, negative = inhibition) at 1uM"
1,CCOC(=O)c1sc(NC(=O)COC(=O)C(CCSC)NC(C)=O)nc1C (centres unmarked),-1.14%
2,Nc1nc2ccccc2n1CCOc1ccc(Br)cc1,-15.4%
3,O=C(COC(=O)C1CCC1)Nc1ccccc1Sc1ccccc1,12.9%
4,Cc1ccc(CNS(=O)(=O)c2c(C(=O)N3CCCCC3)c(C)n(C)c2C)o1,16.9%
5,COc1ccc2nc(NC(=O)CSc3nc4ccccc4o3)sc2c1,12.8%
6,S=C(Nc1ccccc1Cl)N1CCC(c2ccccc2)C1 (centres unmarked),-6.92%
7,c1coc(-c2nnc(-c3cccs3)o2)c1,7.51%
8,O=C(OCn1nnc2ccccc2c1=O)c1cccs1,3.91%
9,Cc1cc(NC(=O)Cn2cc([N+](=O)[O-])cn2)n(Cc2ccc(F)cc2)n1,8.19%
10,CCc1nc2ccc(F)cc2c(C(=O)NC2CCCCC2C)c1C (centres unmarked),12.9%
11,COc1cccc(C2CC(c3cccc(Br)c3)n3ncnc3N2)c1 (centres unmarked),-17.2%
12,COC(=O)c1ccc(Cn2nc(-c3ccccc3)ccc2=O)cc1,5.49%
13,CCCSc1nnc(NC(=O)c2sc3nc(-c4cccs4)ccc3c2N)s1,10.5%
14,CC1CCN(c2ccccc2NC(=S)NC(=O)c2ccc(-c3cccc([N+](=O)[O-])c3)o2)CC1,10.6%
15,Cc1nn(-c2ccccc2)c2c1C(c1ccc(F)cc1)C(C#N)=C(N)O2 (centres unmarked),7.1%
16,Cc1ccc(NC(=O)CNC(=O)Cc2cccc3ccccc23)c(O)c1,20.3%
17,Cc1ccc(-n2c(=O)cc(N3CC(C)OC(C)C3)[nH]c2=O)cc1 (centres unmarked),10.6%
18,Cc1ccc(C)c(N2CCN(C(=O)Cn3c(=O)[nH]c4ccsc4c3=O)CC2)c1,13.1%
19,COc1ccc(C(=O)N=S2CCN(C(=O)c3ccc(Cl)cc3)CC2)cc1,0.232%
20,CC(C)(C)c1ccc(OCC(=O)NNC(=S)NC(=O)c2ccccc2[N+](=O)[O-])c(Br)c1,15.9%
21,COc1ccc(C)cc1NC(=O)c1ccc(NS(=O)(=O)c2c(C)noc2C)cc1,13.2%
22,COc1cc(OC)c(NC(=S)NCc2ccc(F)cc2)cc1Cl,8.5%
